# Data taken from PubChem BioAssay AID686979 (National Center for Advancing Translational Sciences (NCATS), 2013).
# Several values for one entry are separate records, joined by “and”; a condition that tells them apart may be missing. Equal entries are not always repeated. Screen size: about 420,000 compounds; about 50,000 (12%) were called active. The shares of active, inactive and inconclusive entries below differ from those in the screen. The call rests on the fitted dose curve; in most records, active means well fitted inhibition curve with a large enough effect; inconclusive means small, poorly fitted or top-dose-only effect; inactive means flat fitted curve, though single readings scatter. No potency is given beside an inconclusive call; the fits are too rough.
# Experiment: qHTS for Inhibitors of human tyrosyl-DNA phosphodiesterase 1 (TDP1): qHTS in cells in presence of CPT; further: nearly all actives have a fitted effect of over 55% in size
# Details: chicken DT40 Tdp1-/-;hTDP1 cells + 20 nM CPT, ATP luminescence, 48 h; activity change, negative = growth inhibition: at 46.2 µM (top of the series) unless noted
# In short: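 Chicken DT40 Tdp1-/- cells stably complemented with human TDP1 were seeded at 400 cells/well in medium containing 20 nM camptothecin, exposed to pin-transferred compounds, and grown at 37 °C for at least 48 hr. Viability was read as ATP luminescence.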
# On the % scale 0 is the no-effect control and ±100 the full control effect; potency means the concentration at half of the fitted maximal effect; tags describe the fitted curve by direction and shape.
SMILES,Potency,"activity change, negative = growth inhibition"
COCCNC(=O)C(=O)NNS(=O)(=O)c1ccc2ccccc2c1,"inconclusive [inhibitor, single point]",
Cc1cc(-c2nc3ncccc3o2)ccc1NC(=O)c1ccccc1Br,,inactive: -16.3%
S=C1NCN(CCc2ccccc2)CN1Cc1ccccc1,,inconclusive: -9.99% [inhibitor]
COc1ccc(NC(=O)COC(=O)c2c3c(nc4ccccc24)CCCC3)cc1Cl,active: 20.6 µM,
O=C(NNc1ccc(F)cc1F)C1CCC1,,inactive: -4.64%
Nc1ccc(Nc2nc(-c3cc4ccccc4oc3=O)cs2)cc1,active: 18.4 µM,
Cc1cc(NC(=O)c2ccc3c(c2)OCO3)ccc1NC(=O)c1ccccc1,"inconclusive [inhibitor, single point]",
CCCCN(C)C(=O)CNC(=O)c1nn(-c2ccc(OC)cc2OC)c(=O)c2ccccc12,,inactive: 13.2%
COc1cc2c(cc1OC)CN(C(=O)/C=C/c1cc(OC)c(OC)c(OC)c1)CC2,"inconclusive [inhibitor, partial curve]",
COC(=O)c1ccc(Cn2c(C)c(C(=O)NCc3ccc([N+](=O)[O-])cc3)sc2=O)o1,"inconclusive [inhibitor, single point]",
O=C1CCN(CCCc2ccccc2)CCN1CCO,,inactive: 3.81%
Cn1c(=O)c2ccccc2n(CC(=O)NCCC2=CCCCC2)c1=O,,inactive: -25.4%
COc1ccc(C)cc1Nc1n[n+](-c2ccccc2)c(-c2ccc(N(C)C)cc2)s1,active: 10.3 µM,
O=C(c1ccc(COc2ccc3c(c2)CCC3)o1)N1CCN(c2ccccc2)CC1,active: 14.6 µM,
Cc1ccc(CCNC(=O)CCCn2c(=O)c3ccccc3n(Cc3ccccc3C)c2=O)cc1,"inconclusive [inhibitor, partial curve]",
Clc1ccc2c(NCc3ccccn3)ncnc2c1,"inconclusive [inhibitor, single point]",
COc1ccc(CCNc2oc(-c3ccccc3OC)nc2C#N)cc1OC,"inconclusive [inhibitor, partial curve]",
CC1=C(O)C(=O)C(c2c(C)cc(C)c(Br)c2C)=C(O)C1=O,"inconclusive [inhibitor, single point]",
COc1cccc(C(=O)NC2CCN(C(=O)N3c4ccccc4Sc4ccccc43)CC2)c1,"inconclusive [inhibitor, partial curve, poor fit]",
O=c1[nH]cc([N+](=O)[O-])cc1Br,active: 20.6 µM,
O=c1cc(-c2ccc([N+](=O)[O-])cc2)c2ccc(O)cc2o1,"inconclusive [inhibitor, partial curve, poor fit]",
O=C(O)c1ccc(OCCn2ccnc2)cc1,inactive,
CC1(C)Cc2c(C#N)c(SCCOc3ccccc3)nc(N3CCOCC3)c2CO1,"inconclusive [inhibitor, single point]",

SMILES,Potency,"activity change, negative = growth inhibition"
CCc1ccc2[nH]c(=O)c(C(c3nnnn3CCOC)N3CCN(c4ccccc4F)CC3)cc2c1 (centres undefined),"inconclusive [inhibitor, single point]",
COc1ccc(CNC(=O)C[C@H]2C(=O)N(Cc3ccc(OC)cc3)C[C@@H]2Cc2ccccc2)cc1,active: 10 µM and active: 20.6 µM,
CC(=O)N1c2ccc(S(=O)(=O)N3CCCCCC3)cc2CC1C(=O)NCc1ccccc1C (centres undefined),"inconclusive [inhibitor, partial curve]",
CC1CCCC(NC(=O)CCNS(=O)(=O)c2ccc(Br)cc2)C1C (centres undefined),,inactive: -26.3%
Cc1ccc(F)cc1NC(=O)CSCc1nc2sc(C)c(C)c2c(=O)[nH]1,"inconclusive [inhibitor, single point]",
COC(=O)c1c(C)[nH]c(C(=O)CSc2ccc(Cl)cc2)c1C,"inconclusive [inhibitor, single point]",
Cc1cccc2c(-c3ccccc3)cc(=O)[nH]c12,"inconclusive [inhibitor, partial curve, poor fit]",
Cc1ccccc1-c1nn(-c2ccc(F)cc2F)cc1CNCCCN(C)C,"inconclusive [inhibitor, single point]",
COc1ccc(-c2cc(-c3cccs3)c(C#N)c(SCC(=O)NCc3ccccc3)n2)cc1,"inconclusive [inhibitor, single point]",
COc1cc(OC)c(-c2cc(C(=O)NCc3ccc(F)cc3)c3c(-c4ccccc4)[nH]nc3n2)cc1OC,"inconclusive [inhibitor, single point]",
O=C(O)COc1ccc(CCNS(=O)(=O)c2ccccc2)s1,,inactive: 3.23%
Cc1ccc(NCc2nnc(SCC(=O)Nc3cccc(O)c3)n2CC2CCCO2)c(C)c1 (centres undefined),"inconclusive [inhibitor, single point]",
COC(=O)c1cccc(N(CC(=O)NC2CCCCC2)C(=O)CNC(=O)c2cccs2)c1,,inactive: 6.43%
COc1ccc(C(=O)NNC(=O)C2CCCO2)cc1 (centres undefined),"inconclusive [inhibitor, single point]",
O=C(NCc1cccnc1)C1CCC(c2ccc(Cl)cc2)CC1 (centres undefined),"inconclusive [inhibitor, single point]",
CCOCCCn1c(SCC(=O)Nc2ccc(C(N)=O)cc2)nc2ccccc2c1=O,,inactive: -29.9%
O=C(NCc1ccccc1)c1cccc(Br)n1,"inconclusive [inhibitor, single point]",
Cc1cccc(-c2nc(CNC(=O)c3ccco3)cs2)c1,"inconclusive [inhibitor, single point]",
COc1ccccc1NC(=S)NCC1CCCCC1,"inconclusive [inhibitor, single point]",
O=C1NN(c2ccc(F)cc2)C(=O)/C1=C\C=C\c1ccco1,"inconclusive [inhibitor, single point]",
CC(C)C1N=C2c3ccccc3N=C(SCC(=O)NCc3ccc(Cl)cc3)N2C1=O (centres undefined),"inconclusive [inhibitor, single point]",
N#CC(c1nc2ccccc2nc1N1CCCC1)S(=O)(=O)c1cccs1 (centres undefined),"inconclusive [inhibitor, single point]",
Cc1ccc(Cn2c(Sc3ncccn3)nc3c2c(=O)[nH]c(=O)n3C)cc1,"inconclusive [inhibitor, partial curve]",

SMILES,Potency,"activity change, negative = growth inhibition"
COCCN(C(=O)CSc1nnc(-c2cccc(Cl)c2)n1N)c1c(N)n(CC(C)C)c(=O)[nH]c1=O,,inactive: -8.97%
O=C(Nc1ccc2c(c1)CCCN2C(=O)c1cccs1)c1ccccc1,active: 20.6 µM and active: 16.4 µM,
O=C(Nc1ccc(OCC(=O)N2CCOCC2)cc1)c1ccccc1Cl,,inactive: -10.6%
Cc1c(/C=N/NC(=O)CNc2ccccc2)c2ccccn2c1C(=O)c1ccc(Cl)cc1,"inconclusive [inhibitor, single point]",
CCN1CCN(Cc2ccc(NC(=O)c3ccc(C)c(NC(=O)c4cc(-c5ccc(Br)cc5)n[nH]4)c3)cc2C(F)(F)F)CC1,"inconclusive [inhibitor, partial curve, poor fit]",
C=CCOc1ccc(C[C@H](N)C(=O)NC[C@H]2O[C@@H](n3cnc4c(N)ncnc43)[C@H](O)[C@@H]2O)cc1,,inactive: -13.5%
COc1cc(-c2nnc(-c3ccncc3)o2)ccc1OCc1ccccc1,"inconclusive [inhibitor, partial curve]",
Cc1ccccc1NC(=O)Cc1nc(COC(=O)c2ccc(O)cc2O)cs1,"inconclusive [inhibitor, single point]",
Cc1c(C(=O)NCc2cccc(Cl)c2)sc2nc[nH]c(=O)c12,"inconclusive [inhibitor, single point]",
COc1ccc(Cl)cc1NC(=O)COC(=O)C(CC(C)C)N1C(=O)C2CC=CCC2C1=O (centres undefined),"inconclusive [inhibitor, single point]",
Cc1cc(N/N=C/c2ccncc2)nc2ccccc12,,inactive: -25.5%
CN(CC(=O)Nc1ccc(N2CCOCC2)cc1)C(=O)c1cc2c(s1)CCCC2,,inactive: -9.3%
COc1cccc(Oc2nc(C)nc3c2oc2ccccc23)c1,,inactive: -20.7%
Cn1c(SCC(=O)NCC2CCCO2)nc2scc(-c3ccccc3)c2c1=O (centres undefined),"inconclusive [inhibitor, single point]",
CC(CNC(=O)CCc1cn(Cc2ccccc2Cl)c2ccccc12)c1ccccc1 (centres undefined),"inconclusive [inhibitor, single point]",
Cc1c(C(=O)C(=O)N2c3ccc(F)cc3CCC2C)c2ccccc2n1C (centres undefined),active: 2.59 µM,
COc1ccc(C(=O)c2c3ccc(C(F)(F)F)cc3[n+]([O-])n2CCCN)cc1,"inconclusive [inhibitor, single point]",
Cc1ccccc1C1(CC(=O)N2CCCCC2c2cccnc2)CC(=O)N(C2CCCC2)C1=O (centres undefined),,inactive: -3.91% [at 9.04 µM]
CCOc1ccccc1CNC(=O)c1ccc2nc(N3CCOCC3)sc2c1,"inconclusive [inhibitor, single point]",
COc1ccccc1NC(=O)COc1ccc(C(=O)NC2CCCc3ccccc32)cc1OC (centres undefined),"inconclusive [inhibitor, partial curve]",
O=C(Nc1cccc(S(=O)(=O)N2CCCC2)c1)c1cccnc1,,inactive: -18.3%
Cc1nc(N2CCCC2)c2c(C(=O)Nc3cccc(Cl)c3)c(C)oc2n1,,inactive: -22.6%
Cc1cccc2nc(CSc3nc4cc([N+](=O)[O-])ccc4s3)cn12,"inconclusive [inhibitor, single point]",
